In US20120178908A1 (Novo Nordisk, published 2012):

T1: TLT-1 receptor on the surface of activated human platelets (human, UniProt Q86YW5 16-311)
T1 sequence: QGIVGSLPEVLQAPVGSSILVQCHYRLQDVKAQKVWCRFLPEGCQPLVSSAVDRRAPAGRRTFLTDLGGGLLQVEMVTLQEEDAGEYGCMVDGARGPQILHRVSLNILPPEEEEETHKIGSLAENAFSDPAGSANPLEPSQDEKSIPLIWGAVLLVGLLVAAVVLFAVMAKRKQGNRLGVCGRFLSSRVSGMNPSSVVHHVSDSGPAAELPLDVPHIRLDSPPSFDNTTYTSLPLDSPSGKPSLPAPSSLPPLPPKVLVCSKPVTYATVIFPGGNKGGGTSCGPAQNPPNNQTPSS

T2: TLT-1 18-188 relipidated in 20:80 PS:PC vesicles (human, UniProt Q86YW5 18-188)
T2 sequence: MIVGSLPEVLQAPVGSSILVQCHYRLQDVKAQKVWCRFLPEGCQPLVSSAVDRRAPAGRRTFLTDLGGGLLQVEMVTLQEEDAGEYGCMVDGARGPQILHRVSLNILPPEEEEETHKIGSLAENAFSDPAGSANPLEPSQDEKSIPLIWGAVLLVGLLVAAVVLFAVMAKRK

B1: mAb 0012-(HC-L1-TF)2;LC2 (other)
heavy chain-linker-TF: EVKLLESGGGLVQPGGSLKLSCAASGFDFSRYWMTWVRQAPGKGLEWIGEINPDSSTINYTPSLKDKFIISRDNAKNTLYLQMSEVRSEDTALYYCASGVFTSWGQGTLVTVSAASTKGPSVFPLAPCSRSTSESTAALGCLVKDYFPEPVTVSWNSGALTSGVHTFPAVLQSSGLYSLSSVVTVPSSSLGTKTYTCNVDHKPSNTKVDKRV[human IgG4 Fc with S228P (EU numbers) omitted]GSSGTTNTVAAYNLTWKSTNFKTILEWEPKPVNQVYTVQISTKSGDWKSKCFYTTDTECDLTDEIVKDVKQTYLARVFSYPAGNVESTGSAGEPLYENSPEFTPYLETNLGQPTIQSFEQVGTKVNVTVEDERTLVRRNNTFLSLRDVFGKDLIYTLYYWKSSSSGKKTAKTNTNEFLIDVDKGENYCFSVQAVIPSRTVNRKSTDSPVECMGQEKGEFRE
light chain: DVVMTQTPLSLPVSLGDQASISCRSSQSLVHRNGNTYFHWCLQKPGQSPKLLIYKVSNRFSGVPDRFSGSGSGTDFTLKISRVEAEDLGVYFCSQSTHVPYTFGGGTKLEIKRTVAAPSVFIFPPSDEQLKSGTASVVCLLNNFYPREAKVQWKVDNALQSGNSQESVTEQDSKDSTYSLSSTLTLSKADYEKHKVYACEVTHQGLSSPVTKSFNRGEC
B2: mAb 0012-(HC-L5-TF)2;LC2 (other)
heavy chain-linker-TF: EVKLLESGGGLVQPGGSLKLSCAASGFDFSRYWMTWVRQAPGKGLEWIGEINPDSSTINYTPSLKDKFIISRDNAKNTLYLQMSEVRSEDTALYYCASGVFTSWGQGTLVTVSAASTKGPSVFPLAPCSRSTSESTAALGCLVKDYFPEPVTVSWNSGALTSGVHTFPAVLQSSGLYSLSSVVTVPSSSLGTKTYTCNVDHKPSNTKVDKRV[human IgG4 Fc with S228P (EU numbers) omitted]GGGGSGSGGGGSGGGGSGGGGSSGTTNTVAAYNLTWKSTNFKTILEWEPKPVNQVYTVQISTKSGDWKSKCFYTTDTECDLTDEIVKDVKQTYLARVFSYPAGNVESTGSAGEPLYENSPEFTPYLETNLGQPTIQSFEQVGTKVNVTVEDERTLVRRNNTFLSLRDVFGKDLIYTLYYWKSSSSGKKTAKTNTNEFLIDVDKGENYCFSVQAVIPSRTVNRKSTDSPVECMGQEKGEFRE
light chain: B1 light chain
B3: mAb 0012-(TF-L4b-HC)2;LC2 (other)
TF-linker-heavy chain: SGTTNTVAAYNLTWKSTNFKTILEWEPKPVNQVYTVQISTKSGDWKSKCFYTTDTECDLTDEIVKDVKQTYLARVFSYPAGNVESTGSAGEPLYENSPEFTPYLETNLGQPTIQSFEQVGTKVNVTVEDERTLVRRNNTFLSLRDVFGKDLIYTLYYWKSSSSGKKTAKTNTNEFLIDVDKGENYCFSVQAVIPSRTVNRKSTDSPVECMGQEKGEFREGGGGSGGGGSGGGGSGSMDFGLIFFIVALLKGVQCEVKLLESGGGLVQPGGSLKLSCAASGFDFSRYWMTWVRQAPGKGLEWIGEINPDSSTINYTPSLKDKFIISRDNAKNTLYLQMSEVRSEDTALYYCASGVFTSWGQGTLVTVSAASTKGPSVFPLAPCSRSTSESTAALGCLVKDYFPEPVTVSWNSGALTSGVHTFPAVLQSSGLYSLSSVVTVPSSSLGTKTYTCNVDHKPSNTKVDKRV[human IgG4 Fc with S228P (EU numbers) omitted]
light chain: B1 light chain
B4: mAb 0012-(HC-L6-TF)2;LC2 (other)
heavy chain-linker-TF: EVKLLESGGGLVQPGGSLKLSCAASGFDFSRYWMTWVRQAPGKGLEWIGEINPDSSTINYTPSLKDKFIISRDNAKNTLYLQMSEVRSEDTALYYCASGVFTSWGQGTLVTVSAASTKGPSVFPLAPCSRSTSESTAALGCLVKDYFPEPVTVSWNSGALTSGVHTFPAVLQSSGLYSLSSVVTVPSSSLGTKTYTCNVDHKPSNTKVDKRV[human IgG4 Fc with S228P (EU numbers) omitted]GGGGSGGGGSGSGGGGSGGGGSGGGGSSGTTNTVAAYNLTWKSTNFKTILEWEPKPVNQVYTVQISTKSGDWKSKCFYTTDTECDLTDEIVKDVKQTYLARVFSYPAGNVESTGSAGEPLYENSPEFTPYLETNLGQPTIQSFEQVGTKVNVTVEDERTLVRRNNTFLSLRDVFGKDLIYTLYYWKSSSSGKKTAKTNTNEFLIDVDKGENYCFSVQAVIPSRTVNRKSTDSPVECMGQEKGEFRE
light chain: B1 light chain
B5: mAb 0012-(HC-L2-TF)2;LC2 (other)
heavy chain-linker-TF: EVKLLESGGGLVQPGGSLKLSCAASGFDFSRYWMTWVRQAPGKGLEWIGEINPDSSTINYTPSLKDKFIISRDNAKNTLYLQMSEVRSEDTALYYCASGVFTSWGQGTLVTVSAASTKGPSVFPLAPCSRSTSESTAALGCLVKDYFPEPVTVSWNSGALTSGVHTFPAVLQSSGLYSLSSVVTVPSSSLGTKTYTCNVDHKPSNTKVDKRV[human IgG4 Fc with S228P (EU numbers) omitted]GSGGGGSSGTTNTVAAYNLTWKSTNFKTILEWEPKPVNQVYTVQISTKSGDWKSKCFYTTDTECDLTDEIVKDVKQTYLARVFSYPAGNVESTGSAGEPLYENSPEFTPYLETNLGQPTIQSFEQVGTKVNVTVEDERTLVRRNNTFLSLRDVFGKDLIYTLYYWKSSSSGKKTAKTNTNEFLIDVDKGENYCFSVQAVIPSRTVNRKSTDSPVECMGQEKGEFRE
light chain: B1 light chain
B6: mAb 0012-(HC-L3-TF)2;LC2 (other)
heavy chain-linker-TF: EVKLLESGGGLVQPGGSLKLSCAASGFDFSRYWMTWVRQAPGKGLEWIGEINPDSSTINYTPSLKDKFIISRDNAKNTLYLQMSEVRSEDTALYYCASGVFTSWGQGTLVTVSAASTKGPSVFPLAPCSRSTSESTAALGCLVKDYFPEPVTVSWNSGALTSGVHTFPAVLQSSGLYSLSSVVTVPSSSLGTKTYTCNVDHKPSNTKVDKRV[human IgG4 Fc with S228P (EU numbers) omitted]GSGGGGSGGGGSSGTTNTVAAYNLTWKSTNFKTILEWEPKPVNQVYTVQISTKSGDWKSKCFYTTDTECDLTDEIVKDVKQTYLARVFSYPAGNVESTGSAGEPLYENSPEFTPYLETNLGQPTIQSFEQVGTKVNVTVEDERTLVRRNNTFLSLRDVFGKDLIYTLYYWKSSSSGKKTAKTNTNEFLIDVDKGENYCFSVQAVIPSRTVNRKSTDSPVECMGQEKGEFRE
light chain: B1 light chain
B7: mAb 0012-(LC-L4a-TF)2;HC2 (other)
light chain-linker-TF: DVVMTQTPLSLPVSLGDQASISCRSSQSLVHRNGNTYFHWCLQKPGQSPKLLIYKVSNRFSGVPDRFSGSGSGTDFTLKISRVEAEDLGVYFCSQSTHVPYTFGGGTKLEIKRTVAAPSVFIFPPSDEQLKSGTASVVCLLNNFYPREAKVQWKVDNALQSGNSQESVTEQDSKDSTYSLSSTLTLSKADYEKHKVYACEVTHQGLSSPVTKSFNRGECGSGGGGSGGGGSGGGGSSGTTNTVAAYNLTWKSTNFKTILEWEPKPVNQVYTVQISTKSGDWKSKCFYTTDTECDLTDEIVKDVKQTYLARVFSYPAGNVESTGSAGEPLYENSPEFTPYLETNLGQPTIQSFEQVGTKVNVTVEDERTLVRRNNTFLSLRDVFGKDLIYTLYYWKSSSSGKKTAKTNTNEFLIDVDKGENYCFSVQAVIPSRTVNRKSTDSPVECMGQEKGEFRE
heavy chain: EVKLLESGGGLVQPGGSLKLSCAASGFDFSRYWMTWVRQAPGKGLEWIGEINPDSSTINYTPSLKDKFIISRDNAKNTLYLQMSEVRSEDTALYYCASGVFTSWGQGTLVTVSAASTKGPSVFPLAPCSRSTSESTAALGCLVKDYFPEPVTVSWNSGALTSGVHTFPAVLQSSGLYSLSSVVTVPSSSLGTKTYTCNVDHKPSNTKVDKRV[human IgG4 Fc with S228P (EU numbers) omitted]
B8: mAb 0012-(HC-L4a-TF)2;(LC-HPC4)2 (other)
heavy chain-linker-TF: EVKLLESGGGLVQPGGSLKLSCAASGFDFSRYWMTWVRQAPGKGLEWIGEINPDSSTINYTPSLKDKFIISRDNAKNTLYLQMSEVRSEDTALYYCASGVFTSWGQGTLVTVSAASTKGPSVFPLAPCSRSTSESTAALGCLVKDYFPEPVTVSWNSGALTSGVHTFPAVLQSSGLYSLSSVVTVPSSSLGTKTYTCNVDHKPSNTKVDKRV[human IgG4 Fc with S228P (EU numbers) omitted]GSGGGGSGGGGSGGGGSSGTTNTVAAYNLTWKSTNFKTILEWEPKPVNQVYTVQISTKSGDWKSKCFYTTDTECDLTDEIVKDVKQTYLARVFSYPAGNVESTGSAGEPLYENSPEFTPYLETNLGQPTIQSFEQVGTKVNVTVEDERTLVRRNNTFLSLRDVFGKDLIYTLYYWKSSSSGKKTAKTNTNEFLIDVDKGENYCFSVQAVIPSRTVNRKSTDSPVECMGQEKGEFRE
light chain-HPC4: DVVMTQTPLSLPVSLGDQASISCRSSQSLVHRNGNTYFHWCLQKPGQSPKLLIYKVSNRFSGVPDRFSGSGSGTDFTLKISRVEAEDLGVYFCSQSTHVPYTFGGGTKLEIKRTVAAPSVFIFPPSDEQLKSGTASVVCLLNNFYPREAKVQWKVDNALQSGNSQESVTEQDSKDSTYSLSSTLTLSKADYEKHKVYACEVTHQGLSSPVTKSFNRGECEDQVDPRLIDGK

Target: T1, TLT-1 receptor on the surface of …
Test: cell-based or functional assay

| FVII-mediated FXa generation % Activity activated plts (n 1) [%] | FVIIa-mediated FXa generation % Activity activated plts (n 1) [%] | FVIIa-mediated FXa generation % Activity activated plts (n 2) [%] | Binder |
| --- | --- | --- | --- |
| 23 | 19 | – | B1 |
| 24 | 22 | – | B2 |
| – | – | 11 | B3 |
| 29 | 22 | – | B4 |
| 24 | 21 | – | B5 |
| 23 | 23 | – | B6 |

Target: T2, TLT-1 18-188 relipidated in 20:80 PS:PC …
Test: cell-based or functional assay

| FVII-mediated FXa generation % Activity lipidated TLT-1 [%] | FVIIa-mediated FXa generation % Activity lipidated TLT-1 [%] | Binder |
| --- | --- | --- |
| 62 | 91 | B1 |
| 73 | 98 | B2 |
| 20 | 42 | B3 |
| 72 | 99 | B4 |
| 68 | 92 | B5 |
| 70 | 100 | B6 |
| 59 | 85 | B7 |
| 68 | 91 | B8 |
